Data on 43 molecules can be found in ChEMBL document CHEMBL4888484, “Replenishing the malaria drug discovery pipeline: Screening and hit evaluation of the MMV Hit Generation Library 1 (HGL1) against asexual blood stage Plasmodium falciparum ,using a nano luciferase reporter read-out” (2022).

Out of some 150,000 compounds screened, about 540 (0.36%) showed an effect of 50% or more. The list shows a part of the results.

The test system of this test is Plasmodium falciparum. As to the kind of experiment: Primary screen in NF54 nanoGlo assay, in single point, at 2uM, 72h; a lower Z score goes with more inhibition. Type of test: functional, Erythrocyte. To be noted: timepoint 72 hour.
What is called % Inhibition is the relative decrease from the control value, in per cent. In the case of `CCC(CC)C(=O)N1CC[C@H]2CC(=O)Nc3ccccc3OCC[C@H]2C1`, the “% Inhibition” value is listed as -5% and the Z score came out at 0.82.
For the molecule `Cn1ccc([C@@H]2CCCCCN2S(=O)(=O)c2ccc3c(c2)OCCO3)n1`, the “% Inhibition” value is recorded as -16% and the Z score was 1.44.
Taken in the same sequence, the figures for `O=C(NC[C@H]1CCCN(C(=O)c2ccncc2F)C1)c1ccccc1` were 2% and -0.23.
As for `CN(Cc1noc(-c2ccccc2)n1)C(=O)[C@@H]1CNCC(=O)N1`, the “% Inhibition” value was -19% and the Z score worked out at 3.48.
For `CC(C)(C)C(=O)NCc1ccccc1Cl`, the “% Inhibition” value is reported as -5% and the Z score is reported as 0.64.
Consider `NC(=O)[C@@H]1CCCCN1C(=O)c1ccnc(-n2cccn2)c1`, for which the “% Inhibition” value stood at 12% and the Z score is on record as -1.33.
In the same order, the values of `C[C@H]1CCCCN1CCCNC(=O)CCCN1C(=O)CCn2nc(-c3cccn3C)cc21` are -3% and 0.5.
For `Cc1cccc(NC(=O)C(=O)NCCO)c1Cl`, the “% Inhibition” value was -14% and the Z score is on record as 1.9.
As to `Cc1ccc(F)c(N2CCC[C@H](NC(=O)CCc3cnn(C)c3)C2)c1`, the “% Inhibition” value is reported as -2% and the Z score is 0.25.
On to `CC(C)c1nccn1Cc1cc(=O)n2ccsc2n1`, for which the “% Inhibition” value is given as 2% and the Z score is recorded as -0.3.
Take `CCCn1nc(C)cc1CN(C)c1ccc(NS(=O)(=O)c2cccc(F)c2)cc1C(=O)O`: the “% Inhibition” value was -8% and the Z score came to 1.03.
Regarding `CC1=C(C(=O)N[C@@H](C)c2ccc3[nH]ccc3c2)OCCO1`, the “% Inhibition” value is given as -12% and the Z score is 2.29.
For the molecule `C[C@H](NC(=O)N(Cc1ccncc1)C1CCN(C)CC1)c1cccs1`, the “% Inhibition” value is given as -16% and the Z score worked out at 1.39.
In the same order, the values of `Cc1noc(C)c1CCS(=O)(=O)C1CCCC1` are 0% and 0.
As for `O=C1NC2(CCCC2)C(=O)N[C@H]1Cc1c[nH]c2ccccc12`, the “% Inhibition” value is -10% and the Z score is listed as 1.98.
`C[C@@H](CCNCc1cn(C)nc1C(C)(C)C)N(C)C`: the “% Inhibition” value stood at 0% and the Z score is on record as 0.02.
For `O=C1OC2CC1N(C(=O)c1cnn(-c3ccccc3)n1)C2` (stereo unspecified), the “% Inhibition” value is on record as -4% and the Z score was determined as 0.7.
Take `CC(C)Oc1cncc(-c2ccc3c(c2)CCN3)c1`: the “% Inhibition” value was -1% and the Z score was found to be 0.14.
As to `C#CCCC1(CCC(=O)N2CC[C@H](c3ccc(OC)c(F)c3)C2)N=N1`, the “% Inhibition” value is given as 5% and the Z score is recorded as -0.65.
As for `Cc1cc(Br)oc1C(=O)NCCOC1CCCCCC1`, the “% Inhibition” value is -11% and the Z score is 1.29.
Take `Cc1cnc(NCCCN2CCC[C@H](C)C2)nc1`: the “% Inhibition” value is -7% and the Z score stood at 0.85.
Taken in the same sequence, the figures for `Cc1cc(N2CCCCC[C@H]2c2noc(C(C)C)n2)n2ncnc2n1` were -14% and 1.73.
With `C[C@H](CCO)NCc1sccc1Cl`, the “% Inhibition” value amounted to 5% and the Z score is -0.62.
Consider `Cc1ccnc2nc(C(=O)O[C@@H](C)Cc3ccccc3)nn12`, for which the “% Inhibition” value was -12% and the Z score amounted to 1.93.
As for `CCOC(Cn1cc(C(=O)NC[C@H](C)c2ccccc2)nn1)OCC`, the “% Inhibition” value is -6% and the Z score was found to be 0.74.
Take `O=C(Cc1ccn[nH]1)N(CCc1ccccc1)[C@H]1CCOC1`: the “% Inhibition” value is -5% and the Z score is on record as 0.64.
Taken in the same sequence, the figures for `CN(c1ccc(C(=O)N[C@H]2CCC(=O)NC23CCC3)cc1)C1CCCCC1` were 2% and -0.31.
With `O=C([C@@H]1COc2cc(S(=O)(=O)N3CCN(c4ccccc4)CC3)ccc2O1)N1CCCCCC1`, the “% Inhibition” value was -14% and the Z score turned out to be 1.56.
Consider `c1cc(-c2ccc3c(c2)OCCCO3)n2nccc2n1`, for which the “% Inhibition” value was -3% and the Z score turned out to be 0.48.
Taken in the same sequence, the figures for `Cc1cc([C@@H]2CCCCN2C(=O)c2ccsc2)no1` were 2% and -0.28.
For `O=C(N[C@@H]1CN(C(=O)c2ccco2)CC[C@@H]1CO)c1ccccc1`, the “% Inhibition” value is given as -6% and the Z score was determined as 0.74.
Taken in the same sequence, the figures for `c1ccc2c(CNc3ccc4[nH]ncc4c3)cccc2c1` were -8% and 1.47.
`CC(C)(C)C(=O)N1Cc2cncnc2C1`: the “% Inhibition” value is recorded as -16% and the Z score came out at 2.77.
Taken in the same sequence, the figures for `O=C(O)[C@@H]1CCCN1Cc1nnnn1-c1ccc(Cl)cc1C(F)(F)F` were -12% and 1.34.
For the molecule `COc1ccccc1CC(=O)N1CC[C@H](c2ncon2)C1`, the “% Inhibition” value was -2% and the Z score is listed as 0.41.
Regarding `CC(C)N(C[C@H]1CCC(=O)N1)S(=O)(=O)Cc1ccc(F)cc1`, the “% Inhibition” value is -9% and the Z score came out at 1.02.
As to `CC(=O)N1CCN(CCNc2nc(-c3ccc(Cl)cc3)no2)CC1`, the “% Inhibition” value was -11% and the Z score came out at 1.26.
With `Cn1nncc1S(=O)(=O)N1CCC[C@H](n2cccn2)C1`, the “% Inhibition” value is listed as 0% and the Z score was 0.
Regarding `COC1CCCCC1NC(=O)N[C@H](CCO)c1ccccc1` (stereo partly specified), the “% Inhibition” value is reported as -7% and the Z score turned out to be 0.77.
For `COc1ccc(C(=O)N(CC(=O)N2CCN(c3ccc(-c4cccc(OC)c4)nn3)CC2)C2CC2)cc1`, the “% Inhibition” value is on record as -9% and the Z score amounted to 1.51.
Consider `CC[C@H]1C=CCN1C(=O)c1cc2c(Cl)cccc2[nH]1`, for which the “% Inhibition” value was -4% and the Z score is 0.65.
On to `COC(=O)CN(c1cc(F)cc(F)c1)S(=O)(=O)c1cccn2c(C)nnc12`, for which the “% Inhibition” value was -6% and the Z score came out at 1.11.
In the same order, the values of `c1ccc(OCCc2nnc3n2CCCC[C@H]3C2CCOCC2)cc1` are 5% and -0.72.
